Data reported in PubChem BioAssay AID1159614 (National Center for Advancing Translational Sciences (NCATS), 2016).
About 65 (0.1%) of roughly 45,000 compounds were called active. Calls come from the whole dose curve; as a rule, active = well fitted activation curve with a large enough effect; inconclusive = small, poorly fitted or top-dose-only effect; inactive = no such curve, though single readings can be large or run the other way. Some of the results follow.

Target: Galactocerebrosidase (Homo sapiens) (UniProt P54803)
Chain of UniProt P54803 (P54803 whole entry, looked up): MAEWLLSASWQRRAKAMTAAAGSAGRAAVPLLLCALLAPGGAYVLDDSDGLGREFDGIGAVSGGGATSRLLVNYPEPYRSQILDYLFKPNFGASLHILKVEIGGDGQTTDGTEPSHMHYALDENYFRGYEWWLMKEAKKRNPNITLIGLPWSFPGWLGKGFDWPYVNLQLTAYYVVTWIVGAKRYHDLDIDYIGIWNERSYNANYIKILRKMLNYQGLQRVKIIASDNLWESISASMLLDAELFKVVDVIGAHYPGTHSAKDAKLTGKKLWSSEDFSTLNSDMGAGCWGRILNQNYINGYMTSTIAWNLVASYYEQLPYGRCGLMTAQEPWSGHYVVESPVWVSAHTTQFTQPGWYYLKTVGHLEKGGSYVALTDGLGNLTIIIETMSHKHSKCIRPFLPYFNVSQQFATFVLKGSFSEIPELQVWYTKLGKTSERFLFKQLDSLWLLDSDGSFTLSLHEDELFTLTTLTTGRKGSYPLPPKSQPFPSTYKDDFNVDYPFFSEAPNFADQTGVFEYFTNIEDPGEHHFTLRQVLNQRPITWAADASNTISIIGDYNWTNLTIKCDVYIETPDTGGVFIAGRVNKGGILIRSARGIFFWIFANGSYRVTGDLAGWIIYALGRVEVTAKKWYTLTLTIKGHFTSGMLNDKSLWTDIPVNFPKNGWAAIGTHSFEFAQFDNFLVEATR
Assay: A Novel Cell-Based Assay to Identify Small Molecules for B -Galactocerebrosidase; note: 0% is about no effect; nearly all actives have a fitted effect of over 65% in size
Details: 145M-Twi-hGALC-G270D cells (Twitcher mouse brain line with human GALC G270D), HMU-beta-Gal fluorescence, 48 h; series mostly up to 57.5 µM; activation: at the top concentration
Outline: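 Brain-derived Twitcher mouse 145M-Twi cells stably expressing human GALC-G270D or wild-type GALC, treated live, then residual GALC activity read by fluorescence of HMU-b-Gal substrate (0.1 mM final) in citrate-phosphate buffer pH 5.2 with sodium taurocholate. Signal increase indicates enhancement.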

activation, inactive:
CCN(CC)CCCNc1oc(/C=C/c2ccc(OC)c(OC)c2)nc1C#N -8.78%
CCOC(=O)C1=C(CN2CCN(c3ccc(OC)cc3)CC2)NC(=O)NC1c1ccc(OC)cc1 (stereo not given) -16%
Cc1ccc(Nc2nc3nonc3nc2Nc2cccc(C(F)(F)F)c2)cc1Cl -3.7%
CNc1c(NC(=O)c2ccc(OC)c(OC)c2)c(=O)oc2ccccc12 -22.5%
CCOc1ccc(-c2cc(C(=O)N3CCN(c4cc(Cl)ccc4C)CC3)c3ccccc3n2)cc1 -13.5%
Cc1ccc(NC(=O)CSc2nnc3scc(-c4ccc(Cl)cc4)n23)cc1 -5.46%
CCN(CC)C(=O)Cn1c(=O)cc(C)c2c(C)nn(-c3cccc(Cl)c3C)c21 -23.7%
COc1cccc(CNC(=O)C2CCC(CNS(=O)(=O)c3ccc4c(c3)CCCC(=O)N4)CC2)c1 (stereo not given) -7.28%
Cc1cc(C)cc(NC(=O)NCCc2c(C)nn(C)c2C)c1 -10.7%
Cc1ccc(NC(=O)C(Cc2c[nH]c3ccccc23)NC(=O)OC(C)(C)C)c(C)c1 (stereo not given) -11.6%
CCc1ccc(C(=O)c2cn(CC(=O)Nc3ccc4c(c3)OCO4)c3ccc(CC)cc3c2=O)cc1 -8.07%
Cc1cc2c(cc1S(=O)(=O)CCC(=O)N1CCC(C)CC1)OCC(=O)N2 -13.3%
Cc1ccc(C)c(CSc2nnc3[nH]c(=O)cc(C)n23)c1 -6.56%
Cc1ccc(S(=O)(=O)n2nc(C)c(S(=O)(=O)N3CCCCCC3)c2C)cc1 11.2%
CC(C)c1nn2c(=O)cc(COC(=O)c3cccc(NC(=O)COc4ccc(F)cc4)c3)nc2s1 -1.91%
Cc1cc2c(n1-c1ccc(C(=O)NCCc3ccc(Cl)cc3)cc1)CCCC2 -18.8%
Cc1nc(N2CCCC2)c2c(C(=O)N3CCN(c4ccccc4)CC3)c(C)oc2n1 3.33%
CC(C)C(=O)Nc1nnc2n1CCS2 2.49%
CCC(Cn1nnc2ccccc2c1=O)NC(=O)Nc1cc(C)cc(C)c1 (stereo not given) -11.7%
CCOc1ccc(CNC(=O)c2cccc(NC(=O)N3CCSc4ncccc43)c2)cc1OC -1.07%
CCc1ccc(C(=O)c2cn(CC(=O)Nc3ccc(Cl)cc3)c3cc4c(cc3c2=O)OCO4)cc1 -6.47%
CC(=O)N1CCCc2cc(S(=O)(=O)N3CCCC(C(=O)N4CCN(c5cccc(Cl)c5)CC4)C3)ccc21 (stereo not given) 12.6%
CCOc1cc2sc(N3CCC(C(=O)Nc4ccc(CC)cc4)CC3)nc2cc1Br -11.3%
COc1ccc(C2C(C(=O)Nc3ccccc3)=C(C)Nc3c(C(=O)Nc4ccccc4)cnn32)cc1 (stereo not given) 17.1%
COc1ccc(C)cc1NC(=O)c1noc2c1CSc1ccccc1-2 -2.91%
Cc1ccc(NC(=O)C2(c3cccs3)CCOCC2)cc1Cl -20%
COc1ccc(Br)cc1C1C(C(=O)Nc2ccc(C)cc2C)=C(C)Nc2ncnn21 (stereo not given) -10.7%
COCCCNc1nc(NCc2ccccc2OC)c2cnn(C)c2n1 3.18%
Cc1ccc(C)c(N2CCN(C(=O)c3cn(CC(C)C)c(=O)c4c3c3ccccc3n4C)CC2)c1 -20%
Cc1ccc(C)c(CSc2nc(-c3ccccc3F)nc3c2Cc2c(CO)cnc(C)c2O3)c1 -14.6%
COCCNC(=O)CCC(=O)NNc1nc2ccccc2c2nc(C)nn12 -3.49%
CCOc1ccccc1NC(=O)c1c(NC(=O)COc2ccc(Cl)cc2)sc2c1CCCCC2 -1.41%
CS(=O)(=O)N1CCc2cc(C(=O)N3CCN(c4cccc(Cl)c4)CC3)ccc21 -4.94%
Cc1ccc2c(CNCCc3ccccc3)c(C(=O)O)n(Cc3ccccc3C)c2c1 8.03%
O=C(NCCc1ccccc1)c1nn(-c2ccccc2F)nc1CO -14.9%
COc1ccc(NC(=O)Cn2c(=O)n(-c3cc(C)cc(C)c3)c(=O)c3oc4ccccc4c32)cc1OC -9.41%
COc1cccc(NC(=O)Cn2nnc(C(=O)NCc3cccs3)c2N)c1 -10.1%
CCOc1ccccc1-c1noc(CSc2nnc(-c3ccccc3)n2-c2cccc(C)c2)n1 -17.3%
CCOC(=O)c1c(Nc2cccc(C(=O)OC)c2)nnc(-c2ccccc2)c1-c1ccccc1 -22.6%
COc1ccc(OC)c(C2c3c(-c4ccc(Br)cc4)n[nH]c3C(=O)N2c2ccc(Cl)cc2)c1 (stereo not given) 5.4%
CCOc1ccc(NC(=O)c2ccc3c(SCC(=O)O)c4c(nc3c2)CCC4)cc1 -17%
CN1CCCN(C(c2ccccc2)c2ccc(Cl)cc2)CC1 (stereo not given) -8.68%
CCOC(=O)[C@H](CCc1ccccc1)N[C@@H](C)C(=O)N1C(=O)N(C)C[C@H]1C(=O)O -12.1%
C[C@@H]1C[C@H]2[C@@H]3CCC4=CC(=O)C=C[C@]4(C)[C@@]3(Cl)[C@@H](O)C[C@]2(C)[C@@]1(OC(=O)c1ccco1)C(=O)CCl -9.14%
CCOC(=O)c1cnc2c(cnn2CC)c1NN=C(C)C -14.7%
COc1ccccc1NC(=O)N1CCN(c2nnc(C)c3c(C)n(-c4ccc(Cl)cc4)nc23)CC1 -17.1%
O=C(Nc1cccc(C(F)(F)F)c1)N1CCC(CN2CCCCCC2)CC1 -6.59%
COc1cc(-c2nc3ccccn3c2Nc2ccccc2C)ccc1O -29%
CCOc1ccccc1NC(=O)COC(=O)c1cn(CC)c2nc(C)ccc2c1=O -4.91%
COc1ccccc1C(=O)Nc1ccc(NC(=O)c2cccs2)cc1 -13.5%
COc1ccc(Nc2cc(C(=O)NCCCN(C)Cc3ccccc3)c3ccccc3n2)c(OC)c1 -29.3%
CCOc1ccc(S(=O)(=O)NCC(c2ccco2)S(=O)(=O)c2ccc(C)cc2)cc1 (stereo not given) -9.77%
COc1ccccc1CNS(=O)(=O)c1ccc(-c2cc(C(F)(F)F)on2)s1 -14%
CC1CCN(c2cc3c(cc2F)c(=O)c(S(=O)(=O)c2cccc(Cl)c2)cn3Cc2ccccc2)CC1 -18.9%
CC1CCc2c(sc(NC(=O)Cn3nnc(-c4ccc(C(F)(F)F)cc4)n3)c2C#N)C1 (stereo not given) -18.9%
COc1ccc(CC(=O)NCCc2sc(-c3ccc(Cl)cc3)nc2C)cc1OC -3.17%
COc1ccc(NC(=O)C(=O)NCCc2sc(-c3ccc(Cl)cc3)nc2C)cc1 -8.34%
COc1ccc(C2=C(C(C)=O)Sc3nnc(-c4ccc(C)cc4)n3N2C(C)=O)cc1OC -5.94%
Cn1nc(-c2ccccc2F)c2cc(C(=O)NCc3ccc(Cl)cc3)sc21 -37.6%
CCc1ccc(NC(=O)CSc2nc3n[nH]c(C)c3c(=N)n2-c2ccc(C)cc2)cc1 0.645%
